Reference: article PMC4336329 (PLoS ONE, 2015)
The whole screen tested about 310,000 compounds, of which about 14,000 (4.5%) showed an effect of 50% or more. The effect is printed as a negative number. The list shows a part of the results.

Molecular target: human ether-à-go-go-related gene (hERG) potassium channel (human, UniProt Q12809)
Experiment: primary screen, population patch clamp on CHO cells stably expressing hERG
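Further: peak tail current of the secondary pulse compared with the same well before compound.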

human ether-à-go-go-related gene (hERG) potassium channel, sequence (Q12809 whole entry, looked up): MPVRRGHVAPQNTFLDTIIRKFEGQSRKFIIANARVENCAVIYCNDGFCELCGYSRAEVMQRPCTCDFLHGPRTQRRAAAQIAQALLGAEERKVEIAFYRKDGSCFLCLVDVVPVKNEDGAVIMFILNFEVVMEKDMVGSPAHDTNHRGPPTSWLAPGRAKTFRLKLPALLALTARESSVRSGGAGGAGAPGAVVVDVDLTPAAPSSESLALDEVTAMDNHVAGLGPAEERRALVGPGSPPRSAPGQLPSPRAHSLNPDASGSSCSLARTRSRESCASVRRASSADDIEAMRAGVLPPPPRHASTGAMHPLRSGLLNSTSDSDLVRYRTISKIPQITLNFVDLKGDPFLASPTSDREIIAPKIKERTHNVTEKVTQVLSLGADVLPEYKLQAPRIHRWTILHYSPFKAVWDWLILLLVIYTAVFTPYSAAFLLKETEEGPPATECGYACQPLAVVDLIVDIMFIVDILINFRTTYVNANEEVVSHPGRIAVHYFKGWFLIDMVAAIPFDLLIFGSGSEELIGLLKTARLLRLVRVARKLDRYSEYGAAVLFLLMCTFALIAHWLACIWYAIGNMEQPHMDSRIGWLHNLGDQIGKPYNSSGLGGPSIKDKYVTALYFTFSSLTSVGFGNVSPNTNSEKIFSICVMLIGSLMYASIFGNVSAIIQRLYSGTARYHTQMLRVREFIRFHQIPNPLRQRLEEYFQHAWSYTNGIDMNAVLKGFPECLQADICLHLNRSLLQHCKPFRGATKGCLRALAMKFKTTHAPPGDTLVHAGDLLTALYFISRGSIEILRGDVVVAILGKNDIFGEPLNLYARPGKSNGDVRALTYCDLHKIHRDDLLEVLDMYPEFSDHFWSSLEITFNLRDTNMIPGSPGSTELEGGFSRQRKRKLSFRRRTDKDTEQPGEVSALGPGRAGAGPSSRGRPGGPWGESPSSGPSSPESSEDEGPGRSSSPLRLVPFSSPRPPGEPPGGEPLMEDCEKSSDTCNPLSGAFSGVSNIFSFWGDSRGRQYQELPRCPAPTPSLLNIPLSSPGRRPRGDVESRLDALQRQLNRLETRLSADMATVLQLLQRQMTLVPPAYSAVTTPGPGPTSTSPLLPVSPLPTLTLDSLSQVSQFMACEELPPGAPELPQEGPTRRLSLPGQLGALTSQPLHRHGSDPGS

| SMILES | hERG current change (%, negative = inhibition) at 10uM [%] |
| --- | --- |
| CCOn1c(=O)c[n+]([O-])c2ccccc21 | 29 |
| COc1ccccc1N1CCN(C(=O)/C=C/c2c(Cl)nc3ccccn23)CC1 | -4.08 |
| CC1(C)Cc2c(cnn2-c2cccc(F)c2)C(NC(=O)CSc2ccncc2)C1 (stereo not shown) | -56.5 |
| CCOC(=O)C1(CCSC)NC(c2ccco2)C2C(=O)N(C)C(=O)C21 (stereo not shown) | 11 |
| COc1ccc2cc(-c3[nH]ncc3CN3C[C@@H]4CCC[C@H]3C4)ccc2c1 | -58.7 |
| O=C(N/N=C/c1cn[nH]c1-c1ccc(F)cc1)c1ccncc1 | 6.55 |
| N#CCCCSc1nnc(-c2ccc(Cl)cc2)n1-c1ccccc1 | -10 |
| CCOC(=O)Cc1cc(=O)[nH]c(/N=C(\N)Nc2ccc(OC)cc2)n1 | 5.04 |
| CCn1c(CSc2nc3ccccc3s2)n[nH]c1=S | 15.8 |
| CCN(CC(=O)Nc1ccc(NC(C)=O)cc1)C(=O)c1ccccc1SCC(=O)N1CCCC1 | 4.37 |
| CCC(C)c1c(O)nc(SCC(=O)N2CCOCC2)[nH]c1=O (stereo not shown) | -1.36 |
| Cc1ccc2oc(-c3cccc(N)c3)nc2c1 | 18.6 |
| Cc1ccc(C(=O)NCc2ccc3c(c2)OCO3)cc1C | 7.22 |
| COC(=O)CN1C(=O)N/C(=C/c2cc(OC)c(OC)cc2C)C1=O | 3.41 |
| Cc1ccc(C(=O)Nc2sc3c(c2C#N)CCCCC3)cc1C | 1.01 |
| Cc1nonc1NC(=O)CSc1nc2ccc(Cl)cc2[nH]1 | 3.09 |
| COc1cccc(NC(=O)C(OC(=O)c2cnc(C)cn2)c2ccccc2)c1 (stereo not shown) | 5.89 |
| CC(=O)[C@@H]1[C@@H](C(=O)c2ccc(C)cc2)[C@]2(C(=O)Nc3ccccc32)[C@H]2C=Cc3cc(F)ccc3N12 | 2.02 |
| Cc1cc(O)c2c(c1)C(=O)c1cc(O)cc(O)c1C2=O | 8.63 |
| COc1ccc(NS(=O)(=O)c2cccc(C(=O)N/N=C/c3cccs3)c2)cc1 | -7.85 |
| O=[N+]([O-])c1cccc(C(=S)N2CCN(c3ccccc3F)CC2)c1 | -15 |
| CCNC(=O)C(=O)NCCc1ccc(Cl)cc1 | 10.7 |
| CCOc1ccc(N(C)S(=O)(=O)c2ccc(-c3cc(C)no3)s2)cc1 | 13.9 |
| COc1ccc(C(=O)Nc2cc(C)nn2-c2ccc(C)cc2)cc1 | 20.5 |
| Cc1ccc(/C=C2\C(=O)NC(=S)N(c3ccc(F)cc3)C2=O)s1 | 14.5 |
